# This is one part of the list.
# B1: HFR-1 (Triticum aestivum) (protein)
# chain: MSPQSFTLETTTTTPAAKGSDPSYFQSAPACHEMIQHKELLLHLYAYQNVQKTPDANQAVIVESKRPECFGILAANDWTVYDGPAHNANLVAHAQGLHLGASMAKENWFICFNMVFVNQRFTGSSFKVMGDFQGTAHNGEWAIVGGTGEFAYAQGVIAFKKTQQSERNARMELHVRAMCLSFLRPLLSLGDGSAVAKIGPWGKMSGELLDIPSTPQRLERITIRHGVVIDSLAFSFIDKAGEPYNVGPWGGRRGDNKDTIELAPSEIVTEVSGTVGIFAEDNVEYNAIASLTITTNHRPYGPFGETQSTPFSVPVQDNNNIVGFFACAGKYVEALGVYVRSPVST
# Assays:
# Assay in all cases: glycan array binding signal (z-score within array); higher = stronger binding
# Conditions in all cases: glycan notation: IUPAC condensed, linker removed
# [1] = molecular target: Fuc(a1-2)[GalNAc(a1-3)]Gal(b1-4)[Fuc(a1-3)]GlcNAc
# In short: (§1)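 From the Consortium for Functional Glycomics database, 3228 arrays were curated, keeping only those whose protein sequence was available. Binding is given as a within-array Z-score averaged across arrays sharing a protein sequence and across linkers. Negative Z-scores can be read as non-binding.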
# [2] = molecular target: Fuc(a1-2)[GalNAc(a1-4)]Gal(b1-4)GlcNAc
# In short: as §1
# [3] = molecular target: Fuc(a1-2)[GalNAc(b1-3)]Gal
# In short: as §1
# Fuc(a1-3)GlcNAc = molecular target: Fuc(a1-3)GlcNAc
# In short: as §1
# [4] = molecular target: Fuc(a1-3)[Gal(b1-4)]Glc6S
# In short: as §1
# [5] = molecular target: Fuc(a1-3)[Gal(b1-4)]GlcNAc
# In short: as §1
# [6] = molecular target: Fuc(a1-3)[Gal(b1-4)]GlcNAc(b1-2)Man(a1-3)[Fuc(a1-3)[Gal(b1-4)]GlcNAc(b1-2)Man(a1-6)]Man(b1-4)GlcNAc(b1-4)GlcNAc
# In short: as §1
# [7] = molecular target: Fuc(a1-3)[Gal(b1-4)]GlcNAc(b1-2)Man(a1-6)[Gal(b1-4)GlcNAc(b1-2)Man(a1-3)]Man(b1-4)GlcNAc(b1-4)GlcNAc
# In short: as §1
# [8] = molecular target: Fuc(a1-3)[Gal(b1-4)]GlcNAc(b1-3)Gal(b1-3)[Fuc(a1-4)]GlcNAc
# In short: as §1
# [9] = molecular target: Fuc(a1-3)[Gal(b1-4)]GlcNAc(b1-4)Gal(b1-4)[Fuc(a1-3)]GlcNAc
# In short: as §1
# [10] = molecular target: Fuc(a1-3)[Gal(b1-4)]GlcNAc(b1-4)Gal(b1-4)[Fuc(a1-3)]GlcNAc(b1-4)Gal(b1-4)[Fuc(a1-3)]GlcNAc
# In short: as §1
# [11] = molecular target: Fuc(a1-3)[Gal(b1-4)]GlcNAc6S
# In short: as §1
# [12] = molecular target: Fuc(a1-3)[Gal3S(b1-4)]Glc6S
# In short: as §1
# [13] = molecular target: Fuc(a1-3)[Gal3S(b1-4)]GlcNAc
# In short: as §1
# [14] = molecular target: Fuc(a1-3)[Gal3S(b1-4)]GlcNAc6S
# In short: as §1
# [15] = molecular target: Fuc(a1-3)[GalNAc(b1-4)]GlcNAc
# In short: as §1
# Fuc(a1-4)GlcNAc = molecular target: Fuc(a1-4)GlcNAc
# In short: as §1
# Fuc(b1-3)GlcNAc = molecular target: Fuc(b1-3)GlcNAc
# In short: as §1
# Gal(a1-2)Gal = molecular target: Gal(a1-2)Gal
# In short: as §1
# Gal(a1-3)Gal = molecular target: Gal(a1-3)Gal
# In short: as §1
# Gal(a1-3)Gal(b1-3)GlcNAc = molecular target: Gal(a1-3)Gal(b1-3)GlcNAc
# In short: as §1
# Gal(a1-3)Gal(b1-4)Glc = molecular target: Gal(a1-3)Gal(b1-4)Glc
# In short: as §1
# Gal(a1-3)Gal(b1-4)GlcNAc = molecular target: Gal(a1-3)Gal(b1-4)GlcNAc
# In short: as §1
# [16] = molecular target: Gal(a1-3)Gal(b1-4)[Fuc(a1-3)]GlcNAc
# In short: as §1
# Gal(a1-3)GalNAc = molecular target: Gal(a1-3)GalNAc
# In short: as §1
# [17] = molecular target: Gal(a1-3)[Gal(a1-4)]Gal(b1-4)GlcNAc
# In short: as §1
# Gal(a1-4)Gal(b1-4)Glc = molecular target: Gal(a1-4)Gal(b1-4)Glc
# In short: as §1
# Gal(a1-4)Gal(b1-4)GlcNAc = molecular target: Gal(a1-4)Gal(b1-4)GlcNAc
# In short: as §1
# Gal(a1-4)GlcNAc = molecular target: Gal(a1-4)GlcNAc
# In short: as §1
# Gal(a1-6)Glc = molecular target: Gal(a1-6)Glc
# In short: as §1
# Gal(b1-2)Gal = molecular target: Gal(b1-2)Gal
# In short: as §1
# Gal(b1-3)Gal = molecular target: Gal(b1-3)Gal
# In short: as §1
# Gal(b1-3)Gal(b1-4)GlcNAc = molecular target: Gal(b1-3)Gal(b1-4)GlcNAc
# In short: as §1
# Gal(b1-3)GalNAc = molecular target: Gal(b1-3)GalNAc
# In short: as §1
# [18] = molecular target: Gal(b1-3)GalNAc(b1-3)Gal(a1-4)Gal(b1-4)Glc
# In short: as §1
# [19] = molecular target: Gal(b1-3)GalNAc(b1-4)Gal(b1-4)Glc
# In short: as §1
# [20] = molecular target: Gal(b1-3)GalNAc(b1-4)[Neu5Ac(a2-3)]Gal(b1-4)Glc
# In short: as §1
binder,measurement,setting,value
B1,glycan array binding signal (z-score),[1],-0.204
same,glycan array binding signal (z-score),[2],-0.197
same,glycan array binding signal (z-score),[3],-0.033
same,glycan array binding signal (z-score),Fuc(a1-3)GlcNAc,-0.18
same,glycan array binding signal (z-score),[4],-0.21
same,glycan array binding signal (z-score),[5],-0.227
same,glycan array binding signal (z-score),[6],-0.107
same,glycan array binding signal (z-score),[7],0.027
same,glycan array binding signal (z-score),[8],-0.224
same,glycan array binding signal (z-score),[9],-0.165
same,glycan array binding signal (z-score),[10],-0.182
same,glycan array binding signal (z-score),[11],-0.184
same,glycan array binding signal (z-score),[12],-0.148
same,glycan array binding signal (z-score),[13],-0.224
same,glycan array binding signal (z-score),[14],-0.195
same,glycan array binding signal (z-score),[15],-0.231
same,glycan array binding signal (z-score),Fuc(a1-4)GlcNAc,-0.057
same,glycan array binding signal (z-score),Fuc(b1-3)GlcNAc,-0.127
same,glycan array binding signal (z-score),Gal(a1-2)Gal,0.062
same,glycan array binding signal (z-score),Gal(a1-3)Gal,-0.148
same,glycan array binding signal (z-score),Gal(a1-3)Gal(b1-3)GlcNAc,-0.064
same,glycan array binding signal (z-score),Gal(a1-3)Gal(b1-4)Glc,-0.205
same,glycan array binding signal (z-score),Gal(a1-3)Gal(b1-4)GlcNAc,-0.177
same,glycan array binding signal (z-score),[16],-0.141
same,glycan array binding signal (z-score),Gal(a1-3)GalNAc,-0.19
same,glycan array binding signal (z-score),[17],-0.199
same,glycan array binding signal (z-score),Gal(a1-4)Gal(b1-4)Glc,-0.203
same,glycan array binding signal (z-score),Gal(a1-4)Gal(b1-4)GlcNAc,-0.207
same,glycan array binding signal (z-score),Gal(a1-4)GlcNAc,-0.22
same,glycan array binding signal (z-score),Gal(a1-6)Glc,-0.205
same,glycan array binding signal (z-score),Gal(b1-2)Gal,0.042
same,glycan array binding signal (z-score),Gal(b1-3)Gal,-0.136
same,glycan array binding signal (z-score),Gal(b1-3)Gal(b1-4)GlcNAc,0.02
same,glycan array binding signal (z-score),Gal(b1-3)GalNAc,-0.084
same,glycan array binding signal (z-score),[18],-0.2
same,glycan array binding signal (z-score),[19],-0.02
same,glycan array binding signal (z-score),[20],-0.166
